Assay results published in the supplement of paper PMC8728848.
The other results are listed elsewhere or left out.

What was measured:
[1] = molecular target: Neu5Gc(a2-8)Neu5Gc(a2-6)Gal(b1-4)GlcNAc; assay: glycan array binding signal (z-score within array); higher = stronger binding; conditions: glycan notation: IUPAC condensed, linker removed
How it was run: (§1)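 Glycan array data came from 3228 arrays in the Consortium for Functional Glycomics database, and only arrays with an available protein sequence were kept. Glycan names were put into IUPAC-condensed notation, and columns mapping to the same glycan were averaged. The binding signal is a within-array Z-score, averaged across arrays of one protein sequence run at different concentrations or buffers and across linkers. A negative Z-score can be read as non-binding.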

[2] = molecular target: Neu5Gc(b2-6)Gal(b1-4)GlcNAc; assay: as above; conditions: glycan notation: IUPAC condensed, linker removed
How it was run: as §1

B1: PX9961U-pdi-543-24-543 (Parabacteroides distasonis) (protein)
chain: EEPVGEFLPGQVESEENIEGIVTGAYAVLDGYYASDAINSGCSNWQFGDVVSDDAYKGGGGTGDQNQIHLMEIFNANPTGIDFEARWAALYEGIKRCNQAIRLLNGSEVKNKEQRLAEMRFLRGHYYFNLKIIYNQIPWIDETLVDPNEYNKKSNIEFSSDQLWEKILEEFSAAYKVLPESQADYGRPTKMAARAYMAKVYLYQSKWKECLEACDEVIQSGKYELFPDFRNVFLPENDNCSEIIFAIQLSINDGSPNNENGSYGDRLLPPGGPYPVYGFLRPTQNLVNAYKTDVKGLPYNDGKDVSENDYVDVRLDHTLARPNIPFMDVQLYDWTPREASVYGPYSPKKRLVSLNSTYYSPIWPYVNALNFYVIRYADLLLWRAEAAIETGDLETGRKYINMIRERAKNTQHVKTMDQSQDAANYKVGVYDEPFKSKNEAVQALRMERRLEMAHEGIRFFDLVRWGVADEVINAYIAKEKVFRSHLQNAHFVKGKHEYFPIPQSMIDICGTEVMKQNPGY
glycan array binding signal (z-score) [1]: -0.347 | glycan array binding signal (z-score) [2]: 1.12
